Data taken from PubChem BioAssay AID588453 (National Center for Advancing Translational Sciences (NCATS), 2011).
In all, about 390,000 compounds went through this assay and about 4,000 (1%) were called active. Inconclusive results, whose numbers are uncertain, are shown with a selection of clear calls. The call rests on the fitted dose curve; in most records, active means well fitted inhibition curve with a large enough effect; inconclusive means small, poorly fitted or top-dose-only effect; inactive means no such curve, though single readings can be large or run the other way. Where the call is inconclusive, the potency comes from a doubtful curve fit.

Target: Thioredoxin reductase 1, cytoplasmic (Rattus norvegicus) (UniProt O89049)
Test: qHTS Assay for Inhibitors of Mammalian Selenoprotein Thioredoxin Reductase 1 (TrxR1): qHTS; further: nearly all actives have a fitted effect of over 65% in size
Settings: recombinant rTrxR1, NADPH fluorescence consumption, selenite substrate; series mostly up to 114 µM
Outline: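 Rat TrxR1 (90 nM in the dispensed reagent) was pre-reduced with 400 uM NADPH for 5 min at room temperature, then incubated with compound for 15 min. After 400 uM selenite was added, NADPH fluorescence (Ex 340/Em 450 nm) was followed for 8 min.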
Potency means the concentration at half of the fitted maximal effect; tags describe the fitted curve by direction and shape.

Sequence of UniProt O89049 (O89049 whole entry, looked up): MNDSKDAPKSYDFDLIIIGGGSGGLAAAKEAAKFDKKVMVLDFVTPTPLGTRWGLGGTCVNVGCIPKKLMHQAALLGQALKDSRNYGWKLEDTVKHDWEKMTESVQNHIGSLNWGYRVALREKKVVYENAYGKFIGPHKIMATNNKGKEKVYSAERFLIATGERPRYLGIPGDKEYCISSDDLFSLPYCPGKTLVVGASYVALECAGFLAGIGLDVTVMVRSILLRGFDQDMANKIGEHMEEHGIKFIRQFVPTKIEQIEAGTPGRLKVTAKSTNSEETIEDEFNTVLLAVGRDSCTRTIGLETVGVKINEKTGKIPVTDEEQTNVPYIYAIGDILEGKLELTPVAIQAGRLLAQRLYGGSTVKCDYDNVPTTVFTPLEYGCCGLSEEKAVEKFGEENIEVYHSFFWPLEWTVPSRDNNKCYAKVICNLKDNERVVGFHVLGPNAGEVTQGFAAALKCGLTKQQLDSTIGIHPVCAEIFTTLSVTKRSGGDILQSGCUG

Row | Structure (SMILES) | Potency
1 | CCC(CO)Oc1cc(NC(=O)c2ccccc2N)c2ncn(C(C)C)c2c1 (centres undefined) | inconclusive: 89.1 µM [inhibitor, single point]
2 | Cc1ccccc1CSc1nc(-c2ccccc2)nc2c1Cc1c(CO)cnc(C)c1O2 | inconclusive: 22.4 µM [inhibitor, full curve]
3 | Cn1cnnc1SCC(=O)c1ccc(OC(F)F)cc1 | inconclusive: 22.4 µM [inhibitor, single point]
4 | O=C(c1ccc2c(Cl)c3c(nc2c1)CCCC3)N1CCC(N2CCCCC2)CC1 | inconclusive: 22.4 µM [inhibitor, partial curve, poor fit]
5 | Cc1cc(Cl)ccc1NC(=O)CSc1nnc(Cc2cccs2)n1Cc1ccco1 | inconclusive: 44.7 µM [inhibitor, partial curve]
6 | S=C(NCCCn1ccnc1)NC1CCCCC1 | inactive
7 | Cc1ccc2nc(NCCCO)nc(-c3ccccc3)c2c1 | inconclusive: 89.1 µM [inhibitor, single point]
8 | N#Cc1c(-c2cccc(Br)c2)cc(-c2ccco2)[nH]c1=O | inconclusive: 22.4 µM [inhibitor, single point]
9 | CCN1CCN(Cc2ccc(NC(=O)c3cc(NC(=O)C(=O)c4c[nH]c5ccccc45)cc(OC)c3)cc2C(F)(F)F)CC1 | inactive
10 | Cc1cc([N+](=O)[O-])ccc1NC(=S)NC1CCCC1 | inconclusive: 44.7 µM [inhibitor, partial curve]
11 | CCSc1ncc(Cl)c(C(=O)Nc2sc(C(C)=O)c(C)c2C(=O)OC)n1 | inactive
12 | Cc1nn(CCc2n[nH]c(=S)n2-c2ccc(F)c(Cl)c2)c(C)c1[N+](=O)[O-] | inactive
13 | c1ccc(C2Nc3cccc4cccc(c34)N2)cc1 | inconclusive: 56.2 µM [inhibitor, partial curve]
14 | CCC(=O)N1N=C(c2ccc(NS(=O)(=O)CC)cc2)CC1c1ccc(C)cc1 (centres undefined) | inconclusive: 79.4 µM [inhibitor, single point]
15 | CC(=O)N(C1=C(Cl)C(=O)c2ccccc2C1=O)C1CCCCC1 | inconclusive: 0.282 µM [inhibitor, full curve, poor fit]
16 | Cc1nn(-c2ccccc2)c(C)c1C(=O)OCC(=O)NCc1ccco1 | active: 56.2 µM
17 | CCOc1ccc(S(=O)(=O)Nc2cnc3ccccc3c2)cc1 | inactive
18 | CCCCn1c2c(c3ccccc31)CCc1nonc1-2 | inconclusive: 89.1 µM [inhibitor, single point]
19 | CC(C)C[C@@H](CC#N)N1CCN(Cc2ccccc2)CCC1=O | inconclusive: 89.1 µM [inhibitor, single point]
20 | Cc1nn(-c2ccccc2)c(C)c1NC(=O)CCl | inconclusive: 70.8 µM [inhibitor, partial curve, poor fit]
21 | CN1C(=O)/C(=C/c2cc(N=Nc3ccccc3)ccc2O)SC1=S | inconclusive: 12.6 µM [inhibitor, partial curve, poor fit]
22 | COc1ccc(F)cc1NC(=O)C1CCN(c2nc(-c3ccc(OC)c(OC)c3)no2)CC1 | inactive

Row | Structure (SMILES) | Potency
23 | O=C(NCCc1ccccn1)c1ccc(COc2ccccc2)o1 | inconclusive: 22.4 µM [inhibitor, partial curve, poor fit]
24 | NS(=O)(=O)c1ccc(N2N=C(c3ccccc3)CC2c2ccc(F)cc2)cc1 (centres undefined) | inconclusive: 70.8 µM [inhibitor, single point]
25 | N#CC1=C(S)N(c2ccccc2)C(c2ccc(-c3ccccc3Cl)o2)NC1=O (centres undefined) | inconclusive: 50.1 µM [inhibitor, partial curve, poor fit]
26 | Cc1ccc(NC(=O)c2ccc(=O)n(CC(=O)Nc3cc(C)cc(C)c3)n2)cc1 | inactive
27 | CC(c1ccc(F)cc1)n1c(-c2ccc3ccccc3n2)n[nH]c1=S (centres undefined) | inconclusive: 2 µM [inhibitor, full curve]
28 | O=C(CS(=O)(=O)c1ccccc1)c1ccc2c(c1)OCCO2 | inconclusive: 44.7 µM [inhibitor, partial curve]
29 | COc1ccccc1OCC(=O)N1CCCC(Nc2ccc(C)c(C)c2)C1 (centres undefined) | inactive
30 | CC(C)c1onc(C(=O)Nc2cccnc2Cl)c1[N+](=O)[O-] | inconclusive: 39.8 µM [inhibitor, single point]
31 | S=C(NCc1ccco1)Nc1ccc(Cl)cn1 | inconclusive: 56.2 µM [inhibitor, partial curve]
32 | O=C(/C=C/c1ccc(-c2ccccc2[N+](=O)[O-])o1)c1ccc(F)cc1 | inconclusive: 89.1 µM [inhibitor, single point]
33 | Cc1ccc(CSc2ncccc2C(=O)O)cc1 | inactive
34 | CN1CCN(C(=O)c2cc3c(ccc4ccccc43)oc2=O)CC1 | inconclusive: 28.2 µM [inhibitor, single point]
35 | Cc1ccc(Cn2c(N/N=C/c3ccncc3)nc3c2c(=O)n(C)c(=O)n3C)cc1 | inactive
36 | O=C(NC(=S)Nc1ccc(O)cc1)c1cncc(Br)c1 | inconclusive: 15.8 µM [inhibitor, full curve]
37 | O=C(NC(=S)NCc1cccnc1)c1cc(Br)ccc1Cl | inactive
38 | NNc1nc(N)c2c(n1)-c1ccccc1CC21CCCC1 | inconclusive: 89.1 µM [inhibitor, partial curve, poor fit]
39 | CCn1cc(C(=O)O)c(=O)c2cc(F)c(N3CCN(S(=O)(=O)c4ccc(NC(=O)OC)cc4)CC3)cc21 | inactive
40 | CC(=O)[C@@H]1[C@@H]2C(=O)N(Cc3ccccc3)C(=O)[C@@H]2C2c3ccccc3C=CN21 (some centres undefined) | inconclusive: 14.1 µM [inhibitor, full curve]
41 | COc1ccc2c(C)c(CCC(=O)NC3CC3)c(=O)oc2c1C | inconclusive: 89.1 µM [inhibitor, single point]
42 | Cc1ccc(NC(=O)Cn2c(=O)nc(-c3ccccc3F)c3cc(Cl)ccc32)c(Br)c1 | inactive
43 | CC(C)(C)C(=O)NC(=S)Nc1ccc(C(F)(F)F)cc1 | inconclusive: 31.6 µM [inhibitor, full curve, poor fit]
44 | Cc1ccc(C2C(C(=O)c3ccco3)=C(O)C(=O)N2c2ncccn2)cc1 (centres undefined) | inactive
